T1: VEGF-A (human, UniProt P15692-4 27-191, limits assumed)
T1 construct: the ELISA and the proliferation assay say only 'VEGF-A'; also called human VEGF; VEGF-A (R&D systems, Inc.)
T1 sequence (looked up): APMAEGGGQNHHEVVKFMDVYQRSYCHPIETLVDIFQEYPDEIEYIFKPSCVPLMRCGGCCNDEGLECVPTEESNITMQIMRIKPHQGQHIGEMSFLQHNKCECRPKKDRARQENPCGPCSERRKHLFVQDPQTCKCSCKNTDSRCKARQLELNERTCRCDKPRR

T2: ANG2 (UniProt O15123 19-496, limits assumed)
T2 construct: also called angiopoietin 2; recombinant ANG2 (PeproTech)
T2 sequence (looked up): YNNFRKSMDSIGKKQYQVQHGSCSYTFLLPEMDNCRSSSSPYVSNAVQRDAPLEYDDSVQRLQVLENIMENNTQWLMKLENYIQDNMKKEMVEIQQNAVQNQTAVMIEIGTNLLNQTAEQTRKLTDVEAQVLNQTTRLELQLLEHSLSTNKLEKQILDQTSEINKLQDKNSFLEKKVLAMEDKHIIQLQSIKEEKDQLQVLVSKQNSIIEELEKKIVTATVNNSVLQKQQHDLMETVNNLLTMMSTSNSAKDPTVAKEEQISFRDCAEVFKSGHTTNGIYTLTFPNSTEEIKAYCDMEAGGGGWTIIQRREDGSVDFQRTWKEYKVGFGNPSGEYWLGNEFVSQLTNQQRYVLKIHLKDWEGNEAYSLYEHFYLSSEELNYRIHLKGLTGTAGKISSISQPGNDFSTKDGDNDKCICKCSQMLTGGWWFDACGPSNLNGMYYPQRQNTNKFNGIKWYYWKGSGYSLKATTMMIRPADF

T3: ANG1 (UniProt Q15389 20-498, limits assumed)
T3 construct: also called angiopoietin 1
T3 sequence (looked up): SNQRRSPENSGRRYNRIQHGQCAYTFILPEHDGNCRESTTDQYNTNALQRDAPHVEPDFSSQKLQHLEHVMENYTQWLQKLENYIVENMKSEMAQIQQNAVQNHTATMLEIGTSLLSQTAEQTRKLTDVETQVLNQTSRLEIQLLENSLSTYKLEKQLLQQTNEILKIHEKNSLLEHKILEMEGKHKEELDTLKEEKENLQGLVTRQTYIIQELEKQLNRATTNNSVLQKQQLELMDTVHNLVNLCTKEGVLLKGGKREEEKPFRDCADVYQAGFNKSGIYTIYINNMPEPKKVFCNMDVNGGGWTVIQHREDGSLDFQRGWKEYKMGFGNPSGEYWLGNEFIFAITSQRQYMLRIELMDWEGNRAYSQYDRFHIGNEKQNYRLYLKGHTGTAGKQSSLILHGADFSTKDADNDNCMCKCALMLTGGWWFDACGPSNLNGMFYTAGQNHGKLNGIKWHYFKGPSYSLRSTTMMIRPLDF

B1: AT-Fc-VT bi-functional fusion protein (Fc fusion)
chain: AMDLILINSLPLVSDAETSLTCIASGWRPHEPITIGRDFEALMNQHQDPLEVTQDVTREWAKKVVWKREKASKINGAYFCEGRVRGEAIRIRTMKMRQQASFLPATLTMTVDKGDNVNISFKKVLIKEEDAVIYKNGSFIHSVPRHEVPDILEVHLPHAQPQDAGVYSARYIGGNLFTSAFTRLIVRRCEAQKWGPECNHLCTACMNNGVCHEDTGECICPPGFMGRTCEKACELHTFGRTCKERCSGQEGCKSYVFCLPDPYGCSCATGWKGLQCNEACHPGFYGPDCKLRCSCNNGEMCDRFQGCLCSPGWQGLQCEREGIQRMTPKIVDLPDHIEVNSGKFNPICKASGWPLPTNEEMTLVKPDGTVLHPKDFNHTDHFSVAIFTIHRILPPDSGVWVCSVNTVAGMVEKPFNISVKVLPKPLAS[here human IgG1 Fc without letters]GGGSGGGGSGGGGSGDTGRPFVEMYSEIPEIIHMTEGRELVIPCRVTSPNITVTLKKFPLDTLIPDGKRIIWDSRKGFIISNATYKEIGLLTCEATVNGHLYKTNYLTHRQTNTIIDVVLSPSHGIELSVGEKLVLNCTARTELNVGIDFNWEYPSSKHQHKKLVNRDLKTQSGSEMKKFLSTLTIDGVTRSDQGLYTCAASSGLMTKKNSTFVRVHEK
notes: also called bi-functional fusion protein AT
B2: Fc-VT protein (IgG1 Fc, GS linker, chimeric VEGFR1 ECD D2 / VEGFR2 ECD D3 at the C-terminal) (Fc fusion)
chain: [here human IgG1 Fc and a few adjoining residues without letters]GGGSGGGGSGGGGSGDTGRPFVEMYSEIPEIIHMTEGRELVIPCRVTSPNITVTLKKFPLDTLIPDGKRIIWDSRKGFIISNATYKEIGLLTCEATVNGHLYKTNYLTHRQTNTIIDVVLSPSHGIELSVGEKLVLNCTARTELNVGIDFNWEYPSSKHQHKKLVNRDLKTQSGSEMKKFLSTLTIDGVTRSDQGLYTCAASSGLMTKKNSTFVRVHEK
B3: AT-Fc protein (Tie2 ECD amino acid residues 23-448 fused to the N-terminal of IgG1 Fc) (Fc fusion)
chain: AMDLILINSLPLVSDAETSLTCIASGWRPHEPITIGRDFEALMNQHQDPLEVTQDVTREWAKKVVWKREKASKINGAYFCEGRVRGEAIRIRTMKMRQQASFLPATLTMTVDKGDNVNISFKKVLIKEEDAVIYKNGSFIHSVPRHEVPDILEVHLPHAQPQDAGVYSARYIGGNLFTSAFTRLIVRRCEAQKWGPECNHLCTACMNNGVCHEDTGECICPPGFMGRTCEKACELHTFGRTCKERCSGQEGCKSYVFCLPDPYGCSCATGWKGLQCNEACHPGFYGPDCKLRCSCNNGEMCDRFQGCLCSPGWQGLQCEREGIQRMTPKIVDLPDHIEVNSGKFNPICKASGWPLPTNEEMTLVKPDGTVLHPKDFNHTDHFSVAIFTIHRILPPDSGVWVCSVNTVAGMVEKPFNISVKVLPKPLAS[here human IgG1 Fc without letters]

Legend:
VEGF-A [1] = biological target: T1, VEGF-A; test: direct ELISA, ligand coated, anti-human IgG Fc HRP detection
Description: (§1) The ligand pre-coated wells were first incubated with various concentrations of purified AT-Fc protein.
(§2) Overnight ligand pre-coated (100 ng/well) wells were washed 3 times with 1× PBS and blocked with 400 ul 5% non-fat skin milk in PBS for 2 hr. After blocking, 100 ul of 3-fold serially diluted purified protein started from 30 nM were added to each corresponding well in duplicate and incubated for 1 hr at room temperature on shaker. After binding, wells were washed 3 times with PBST (1× PBS with 0.1% Tween-20) before adding 100 ul of 1:2500 diluted goat anti-human IgG Fe HRP conjugates (Jackson ImmunoResearch Inc.) to each well and incubated on shaker for another hour. After final washing, TMB reagent (Invitrogen, Inc.) was added and OD absorption at 450 nm was measured. The data analyzed by sigmoidal curve fitting using Prism 4. Binding of AT-Fc, Fc-VT, and AT-Fc-VT to ANG or VEGF were assessed by similar assays.

ANG2 = biological target: T2, ANG2; test: as above
Description: as §1, §2

VEGF-A [2] = biological target: T1, VEGF-A; test: cell-based or functional assay
VEGF-A [3] = biological target: T1, VEGF-A; test: direct ELISA, VEGF-A coated, anti-human IgG Fc HRP detection
Description: The bound proteins after washing were detected with HRP conjugated goat anti-human IgG Fc specific antibody and OD₄₅₀ readings were plotted, and the results indicated Fc-VT binds to VEGF-A with EC₅₀ of 0.33 nM.
as §2

ANG1 = biological target: T3, ANG1; test: direct ELISA, ligand coated, anti-human IgG Fc HRP detection
Description: as §1, §2

| Binder | EC50 (VEGF-A [1]) | EC50 (ANG2) | IC50, VEGF-dependent HUVEC cell proliferation assay (MTS) (VEGF-A [2]) | EC50 (VEGF-A [3]) | EC50 (ANG1) |
| --- | --- | --- | --- | --- | --- |
| B1 | 0.35 nM | 2.57 nM | 0.26 nM |  |  |
| B2 |  |  | 0.2 nM | 0.33 nM |  |
| B3 |  | 2.01 nM |  |  | 4.26 nM |
